Reference: PubChem BioAssay AID2147 (National Center for Advancing Translational Sciences (NCATS), 2009)
The campaign covered roughly 230,000 compounds. About 3,600 (1.6%) were called active. The inconclusive results got no clear call from the source; some entries with a clear call stand among them for comparison. Calls come from the whole dose curve; as a rule, active = well fitted inhibition curve with a large enough effect (not every such curve was filed as active); inconclusive = small, poorly fitted or top-dose-only effect, or another doubt; inactive = no such curve, though single readings can be large or run the other way. Potencies beside an inconclusive call are fits to weak or partial responses and may not hold up.

These compounds were tested against Lysine-specific demethylase 4E (Homo sapiens) (UniProt B2RXH2) (assay: qHTS Assay for Inhibitors of Human Jumonji Domain Containing 2E (JMJD2E)). Details: JMJD2E catalytic domain, FDH-coupled NADH fluorescence (FDH is formaldehyde dehydrogenase); series mostly up to 57.1 µM; activity change, negative = inhibition: at the top concentration.
Note: nearly all actives have a fitted effect of over 50% in size.
Potency is the fitted concentration of half-maximal effect; tags give direction and shape of the fitted curve.
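Throughout, for activity change, negative = inhibition: 0% = wells with enzyme and -100% = buffer wells without enzyme.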

UniProt B2RXH2, sequence (B2RXH2 whole entry, looked up, the tested form may be a part): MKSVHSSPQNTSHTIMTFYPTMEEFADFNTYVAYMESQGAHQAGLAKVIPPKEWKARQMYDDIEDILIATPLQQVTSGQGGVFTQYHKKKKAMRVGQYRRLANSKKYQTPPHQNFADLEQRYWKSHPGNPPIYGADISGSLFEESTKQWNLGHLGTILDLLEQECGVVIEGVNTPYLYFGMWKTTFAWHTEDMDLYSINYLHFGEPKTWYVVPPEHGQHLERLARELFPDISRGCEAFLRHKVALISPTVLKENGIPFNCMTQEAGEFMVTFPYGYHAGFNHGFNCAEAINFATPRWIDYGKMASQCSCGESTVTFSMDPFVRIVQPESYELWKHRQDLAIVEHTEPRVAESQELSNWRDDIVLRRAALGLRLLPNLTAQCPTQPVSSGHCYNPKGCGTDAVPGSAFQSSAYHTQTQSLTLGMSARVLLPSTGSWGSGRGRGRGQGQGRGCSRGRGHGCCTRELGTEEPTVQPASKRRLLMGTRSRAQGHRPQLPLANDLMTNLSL

| Compound | Potency | activity change, negative = inhibition |
| --- | --- | --- |
| CCN1CCN(C(=O)c2ccc(-c3nc4ccccc4s3)s2)CC1 | inconclusive: 28.2 µM [inhibitor, partial curve] |  |
| O=C(NCc1ccccc1)N(Cc1nc2ccccc2c(=O)[nH]1)C1CCCC1 | inconclusive: 31.6 µM [inhibitor, partial curve] |  |
| CCCCCn1c(Sc2ncccn2)nc2c1c(=O)[nH]c(=O)n2C |  | inactive: 3% |
| COc1cc(OC)c2c(C)cc(=O)oc2c1 | inconclusive: 14.1 µM [inhibitor, partial curve] |  |
| COc1ccc(CNc2ncncc2-c2ccccc2CN(C)C)c(OC)c1 | inconclusive: 39.8 µM [inhibitor, single point] |  |
| CC1CC(C)CN(c2oc(-c3ccco3)nc2C#N)C1 (centres undefined) |  | inactive: -0.574% |
| CC(=O)NC(=S)Nc1ccc(NC(=O)c2cccnc2Cl)cc1 |  | inactive: -3.1% |
| c1cncc(CNc2ncnc3sc4c(c23)CCC4)c1 | inconclusive: 35.5 µM [inhibitor, partial curve] |  |
| CCN(CC)[C@@H](C)CN1c2ccccc2Sc2ccccc21 | active: 7.94 µM |  |
| c1ccc(Cc2nn3c(-c4ccncc4)nnc3s2)cc1 |  | inactive: 6.12% |
| C/C=C\C=C/C(=O)Nc1cccc(C2=NOC3(C2)C[C@H](C(N)=O)N(C(=O)CC)C3)c1 (some centres undefined) |  | inactive: 7.98% |
| COC(=O)c1ccccc1NC(=O)C1CCN(S(=O)(=O)c2cc(C)ccc2OC)CC1 | inconclusive: 28.2 µM [inhibitor, single point] |  |
| O=C(Nc1ccccc1C(=O)O)c1ccc(Br)o1 |  | inactive: 3.16% |
| COc1ccccc1OCC(=O)Nc1cccc(-c2nnc(-c3ccco3)o2)c1 | inconclusive: 31.6 µM [inhibitor, partial curve] |  |
| CC(O)CNCCCOc1ccccc1OCc1ccccc1 (centres undefined) | inconclusive: 31.6 µM [inhibitor, single point] |  |
| CCn1c(C)[n+](Cc2ccccc2)c2ccc(C(=O)OC)cc21 |  | inactive: -22% |
| O=C(CC(=O)N/N=C\c1c(Cl)cccc1Cl)NCc1ccccc1 |  | inactive: 4.3% |
| COc1cccc(OCCN2CCN(c3ncnc4c3cnn4-c3ccccc3)CC2)c1 | inconclusive: 35.5 µM [inhibitor, single point] |  |
| CCCC1N2CC3([N+](=O)[O-])CN1CC([N+](=O)[O-])(C2)C3(C)C (centres undefined) |  | inactive: -5% |
| Cc1cc(=O)oc2cc(OC(=O)c3nn(C(C)C)c(=O)c4ccccc34)ccc12 | inconclusive: 8.91 µM [inhibitor, partial curve] |  |
| OCCN1CCN(CC(O)COc2ccc3ccccc3c2)CC1 (centres undefined) | inconclusive: 35.5 µM [inhibitor, single point] |  |
| O=C(CCCN1C(=O)c2cccc3cccc(c23)C1=O)NCc1cccnc1 | inconclusive: 28.2 µM [inhibitor, partial curve] |  |
| O=S(=O)(N/N=C1\CC(c2ccccc2)Oc2ccccc21)c1ccccc1 (centres undefined) |  | inactive: -1.33% |
| O=C(c1ccc(Oc2ccccc2)cc1)c1nc2c(n1O)CCCC2 | inconclusive: 31.6 µM [inhibitor, single point] |  |
| CC1(C)Cc2nc3oc4c(=S)nc[nH]c4c3cc2CO1 | inconclusive: 35.5 µM [inhibitor, single point] |  |

| Compound | Potency | activity change, negative = inhibition |
| --- | --- | --- |
| COc1cccc(Nc2nnc(SCC(=O)N3CC(=O)Nc4ccccc43)s2)c1 | inconclusive: 39.8 µM [inhibitor, single point] |  |
| CC(=O)Oc1cc2oc(=O)c3c(c2cc1Cl)CCC3 | inconclusive: 14.1 µM [inhibitor, partial curve] |  |
| O=C(CNS(=O)(=O)c1ccc(Br)cc1)OCc1cc(=O)n2cc(Br)ccc2n1 | inconclusive: 25.1 µM [inhibitor, single point] |  |
| Nc1sccc1C(=O)c1ccccc1 |  | inactive: 8.45% |
| CCCc1cc(O)c2c(C)cc(=O)oc2c1 |  | inactive: -8.64% |
| CCc1c(C)nc2ccc(Br)cc2c1SCCC#N |  | inactive: -0.171% |
| O=C(CN1CCCCC1)NCCNc1ccc(C(F)(F)F)cc1[N+](=O)[O-] |  | inactive: -8.78% |
| O=C(N/N=C/c1ccncc1)c1cc2c(ccc3ccccc32)o1 | inconclusive: 35.5 µM [inhibitor, single point] |  |
| Cc1ccccc1CNC(=O)c1ccccc1C(=O)O |  | inactive: 6.87% |
| CCN(CCCNC(=O)CNC(=O)Cn1cnc2ccccc2c1=O)c1cccc(C)c1 | inconclusive: 39.8 µM [inhibitor, single point] |  |
| Cc1ccc(C)c(N(C)C(=O)c2cc3c(=O)[nH]c4ccc(C)cc4c3s2)c1 | inconclusive: 8.91 µM [inhibitor, single point] |  |
| Cc1ccc(S(=O)(=O)/C(=C/Cl)NC(=O)c2ccccc2)cc1 |  | inactive: 5.44% |
| Cc1c(C(=O)OC/C(O)=C(\C#N)c2nc3ccccc3[nH]2)oc2ccccc12 | inconclusive: 25.1 µM [inhibitor, single point] |  |
| COc1ccc(C2C=C(c3ccc(Br)cc3)Nc3nc(N4C(=O)CCC4=O)nn32)cc1 (centres undefined) | inconclusive: 22.4 µM [inhibitor, partial curve] |  |
| CN(C)c1ccc(/C=C2/NC(=O)NC2=O)cc1 |  | inactive: -10.6% |
| CCCCN1C(=O)C(NC(C)=O)c2ccccc21 (centres undefined) |  | inactive: 6.17% |
| COc1ccc(CCNC(=O)C23CN(Cc4ccccc4)CC2C(c2cccc([N+](=O)[O-])c2)=NO3)cc1 (centres undefined) |  | inactive: -4.69% |
| CC(C)NC(=O)CSCc1c(F)cccc1Cl |  | inactive: 9.59% |
| CCOC(=O)c1ccc(NC(=O)Nc2ncc(Cl)cc2Cl)cc1 |  | inactive: 1.6% |
| COc1ccc(-c2cc(C(F)(F)F)c(C#N)c(SCC(=O)O)n2)cc1 | inconclusive: 31.6 µM [inhibitor, partial curve] |  |
| O=C(Nc1nnc(-c2ccc3c(c2)OCCO3)o1)c1ccc(Cc2ccccc2)cc1 | inconclusive: 25.1 µM [inhibitor, partial curve] |  |
| COc1cc(Cl)c(C)cc1NC(=O)COC(=O)C(NS(=O)(=O)c1ccc(Cl)cc1)C(C)O (centres undefined) | inconclusive: 39.8 µM [inhibitor, single point] |  |
| COC(=O)CCc1nc2cc(Cl)ccc2n(Cc2ccccc2)c1=O | inconclusive: 31.6 µM [inhibitor, single point] |  |
| COc1ccc(-c2n[nH]c(=S)n2/N=C/C=C\c2ccccc2OC)cc1 | inconclusive: 31.6 µM [inhibitor, single point] |  |
